Source: ChEMBL document CHEMBL1201862, “PubChem BioAssay data set” (2004)
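A five-concentration, 48-hour dose response in 96-well plates underlies each endpoint, interpolated linearly between surrounding concentrations. GI50 = concentration required for 50% inhibition of growth.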 The source made the active and inactive calls. Cut-off read from the data, not from the text of the source: active = GI50 up to about 1.1 µM and inactive = higher.

Test system: NCI-H322M
Test: NCI tumour cell line growth inhibition, 48 h

Row | Structure (SMILES) | GI50
1 | COc1ccc(CC2Cc3ccccc3CC(=O)N2)cc1OC (centres undefined) | inactive: > 100 µM
2 | CNC(=O)c1ccccc1-[s+]1c2ccccc2c(=O)n1C (centres undefined) | inactive: > 100 µM
3 | CC(C)(C)c1cc(C(O)(C(=O)O)C(=O)O)cc(C(C)(C)C)c1O | inactive: > 100 µM
4 | CC(=O)N1CC(C)(C)c2c(C)c(O)c(C)c(C)c21 | inactive: > 100 µM
5 | COc1nc(NC2OC(COC(C)=O)C(OC(C)=O)C(OC(C)=O)C2OC(C)=O)c(/N=C/C=N/c2c(NC3OC(COC(C)=O)C(OC(C)=O)C(OC(C)=O)C3OC(C)=O)nc(OC)[nH]c2=O)c(=O)[nH]1 (centres undefined) | inactive: > 100 µM
6 | CCOC(=O)/C=C1\c2ccccc2C(=O)N1CC(=O)OCC | inactive: > 100 µM
7 | ClCCC[Si]12OCCN(CCO1)CCO2 | inactive: > 100 µM
8 | CCOC(=O)CNC(=O)OCc1ccccc1 | inactive: > 100 µM
9 | Cc1ccc(NC(=O)CCc2nnc3s/c(=C\C=C\c4ccccc4)c(=O)n23)cc1 | inactive: > 71.6 µM
10 | Cc1ccc(C(=O)NC2C(=O)NC(C(C)C)C(=O)N3CCCC3C(=O)N(C)CC(=O)N(C)C(C(C)C)C(=O)OC2C)c2c1Oc1c(c(C(=O)NC3C(=O)NC(C(C)C)C(=O)N4CCCC4C(=O)N(C)CC(=O)N(C)C(C(C)C)C(=O)OC3C)c3nc(-c4ccccc4)c(=O)oc3c1C)N2 (centres undefined) | active: 0.00128 µM
11 | COc1ccc(C(=O)O)c(Cc2cccc3ccccc23)c1 | inactive: > 100 µM
12 | Cc1cc2c(s1)C(=O)c1sccc1C2=O | inactive: 1.76 µM
13 | CC(=O)NC(Cc1ccc(OP(=O)(OCc2ccc([N+](=O)[O-])o2)N(C)CCCCCl)cc1)C(=O)NC(C)c1ccc(OCC2CCCCC2)c(C(N)=O)c1 (centres undefined) | inactive: 4.29 µM
14 | Brc1ccc(-c2[nH]c3ccccc3c2/C=N\Nc2ccc(-c3nc4ccccc4[nH]3)cc2)cc1 | active: < 0.01 µM
15 | CCOc1ccc(/C=C(\Cl)c2ccc(OC)c(OC)c2)cc1 | inactive: 39.4 µM
16 | CC1=C(C(=O)NCc2ccccc2)C(/C=C/c2ccccc2)C(C(=O)NCc2ccccc2)=C(C)N1 | inactive: > 100 µM
17 | N/C=N/S(=O)(=O)c1ccc(NC(=O)COC(=O)c2cccc3c(=O)c4ccccc4[nH]c23)cc1 | inactive: > 100 µM
18 | C/C(=N\NS(=O)(=O)c1ccc(C)cc1)c1ccc[n+]([O-])n1 | inactive: > 100 µM
19 | c1ccc(-c2nc3sccn3n2)cc1 | inactive: > 100 µM
20 | CC(C)N/C(=N\C#N)NS(=O)(=O)c1cnccc1NC1CCCCCCC1 | inactive: > 100 µM
21 | COC(=O)/C=C(\C(=O)OC)c1c2c3c(cc(OC)c(OC)c3c3ccccc13)CCN2C | inactive: > 100 µM
22 | COC(=O)Cc1cc(=O)[nH]c2c1C(=O)CCC2 | inactive: > 100 µM

Row | Structure (SMILES) | GI50
23 | COc1cc(/C=N\O[Si](C)(C)C(C)(C)C)ccc1O[Si](C)(C)C(C)(C)C | inactive: > 100 µM
24 | CC(NC(=O)C(Cc1ccc(OC(=O)c2ccccc2)cc1)NC(=O)OC(C)(C)C)C(=O)NCC(=O)NC(Cc1ccccc1)C(=O)NN (centres undefined) | inactive: > 100 µM
25 | CCCCCCCCOC(CO)CO | inactive: > 100 µM
26 | CC(C)=CC(=O)OC1C2C(C)=CC(O)C(O)C2(C)C2C3(O)OCC24C(CC(=O)OC14)C(C)C3O (centres undefined) | active: 1.08 µM
27 | COc1ccc(/C(Cl)=C(/c2ccc(O)cc2)c2ccc(OCCN(C)C)cc2)cc1 | inactive: 11.4 µM
28 | Cc1ccc([N+](=O)[O-])cc1S(=O)(=O)Nc1ccc(C2=NN(c3ccc([N+](=O)[O-])cc3[N+](=O)[O-])C(c3ccccc3)C2)cc1 (centres undefined) | inactive: 17 µM
29 | COc1ccc2c(c1)CC[C@@H]1[C@@H]2CC[C@]2(C)[C@@H](O)/C(=C/c3ccncc3)C[C@@H]12 | inactive: 15.9 µM
30 | CCCC/N=C(/c1ccccc1)N1CCOCC1 | inactive: > 100 µM
31 | O=C(O)CCC(/N=C(\C(=N\C(CCC(=O)O)C(=O)O)c1ccccc1)c1ccccc1)C(=O)O (centres undefined) | inactive: > 100 µM
32 | CCOC(=O)/C(C(C)=O)=C(\OC(C)=O)c1ccncc1C(=O)O | inactive: > 100 µM
33 | CC1SC(c2ccccc2)N(Nc2c3ccccc3nc3ccccc23)C1=O (centres undefined) | inactive: 97.1 µM
34 | N#Cc1ccc(Oc2ccccc2)cc1C#N | inactive: > 100 µM
35 | COC(=O)C(=O)C(CC(=O)Nc1ccc(C)cc1)C(=O)OC (centres undefined) | inactive: > 100 µM
36 | CN1CCOC1(C)CO (centres undefined) | inactive: > 100 µM
37 | O=S(=O)(O)c1cc(O)c2c(O)c(/N=N/c3ccc(/C=C/c4ccc(/N=N/c5c(S(=O)(=O)O)cc6cc(S(=O)(=O)O)cc(O)c6c5O)cc4S(=O)(=O)O)c(S(=O)(=O)O)c3)c(S(=O)(=O)O)cc2c1 | inactive: > 100 µM
38 | Cc1cc(S(=O)(=O)O)ccc1/N=N/c1c(O)ccc2ccccc12 | inactive: > 100 µM
39 | CC1CC2CCCC(=O)C2=C(O)O1 (centres undefined) | inactive: > 100 µM
40 | O=[N+]([O-])c1cc(-c2nnc(C34CC5CC(CC(C5)C3)C4)o2)cc([N+](=O)[O-])c1 | inactive: 35 µM
41 | Cc1[nH]n(-c2ncc(C#N)c(=O)[nH]2)c(=O)c1CCO | inactive: > 100 µM
42 | CN(C)CCC1(C2=CCCC2)CC/C(=C\c2ccc(Cl)cc2)C1=O (centres undefined) | inactive: 12.4 µM
43 | NS(=O)(=O)c1ccc(/N=N/c2ccc(O)cc2)cc1 | inactive: > 100 µM
44 | CC(=O)O[C@H]1[C@@H]2[C@@H]3[C@@H](C[C@H]1C)[C@@H](C)CO[C@@]1(C)CC/C=C(/C)C[C@@H]2O[C@@H]31 | inactive: > 100 µM
